From PubChem BioAssay AID624417 (National Center for Advancing Translational Sciences (NCATS), 2012)
The whole screen tested about 410,000 compounds, of which about 6,400 (1.6%) were called active. The inconclusive results got no clear call from the source; some entries with a clear call stand among them for comparison. Calls come from the whole dose curve; as a rule, active = well fitted inhibition curve with a large enough effect; inconclusive = small, poorly fitted or top-dose-only effect; inactive = no such curve, though single readings can be large or run the other way. Potencies of inconclusive entries are left out as doubtful fits.

What follows are molecules tested against Glucagon-like peptide 1 receptor (Homo sapiens) (UniProt P43220) (assay: qHTS of GLP-1 Receptor Inverse Agonists (Inhibition Mode)). Conditions: HEK293 GLP-1R CRE-luciferase, luminescence, 24 h, GLP-1R form is constitutively active; activity change, negative = inhibition: at 38.3 µM (top of the series) unless noted.
Outline: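 Stable HEK293 clone (constitutively active GLP-1R + cAMP-response luciferase); 200 cells/uL plated, 12 h pre-culture, compound 24 hr, 37 deg C/5% CO2; detection reagent 12 min RT; luminescence.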
% is set by controls: 0 for no effect and ±100 for the full control effect; potency is the fitted concentration of half-maximal effect; tags give direction and shape of the fitted curve.
Note: nearly all actives have a fitted effect of over 55% in size.

Sequence of UniProt P43220 (P43220 whole entry, looked up): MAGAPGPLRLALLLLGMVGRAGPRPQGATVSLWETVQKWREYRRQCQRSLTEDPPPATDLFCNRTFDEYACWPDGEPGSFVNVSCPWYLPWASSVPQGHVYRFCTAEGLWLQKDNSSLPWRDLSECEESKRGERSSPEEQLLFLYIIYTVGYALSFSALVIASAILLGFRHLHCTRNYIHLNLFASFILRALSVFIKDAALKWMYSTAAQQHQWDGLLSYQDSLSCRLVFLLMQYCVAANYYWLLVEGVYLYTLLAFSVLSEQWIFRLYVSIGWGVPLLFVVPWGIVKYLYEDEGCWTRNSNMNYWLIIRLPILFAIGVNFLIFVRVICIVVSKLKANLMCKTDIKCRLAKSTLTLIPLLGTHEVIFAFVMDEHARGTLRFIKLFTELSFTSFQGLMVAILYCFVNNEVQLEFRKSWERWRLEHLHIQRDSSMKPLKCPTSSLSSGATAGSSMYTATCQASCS

SMILES	Potency	activity change, negative = inhibition
CC1CC(C)(C)CC2(C1)NC(=O)N(CC(=O)Nc1cc(C(F)(F)F)ccc1N1CCCCC1)C2=O (stereo not drawn)	inconclusive [inhibitor, partial curve]	
CCOc1ccc(NC(=O)c2c(NCc3cccs3)sc3c2CCC(C)C3)cc1 (stereo not drawn)	inconclusive [inhibitor, single point]	
C[C@H](CO)N1C[C@H](C)[C@@H](CN(C)C(=O)Nc2ccc3c(c2)OCO3)Oc2ccc(NC(=O)Nc3ccc(C(F)(F)F)cc3)cc2C1=O	inconclusive [inhibitor, partial curve, poor fit]	
O=C1CCC(/C=C/c2ccccc2)=NN1Cc1ccccc1	inconclusive [inhibitor, single point]	
CC1CCCCN1c1ncnc(N)c1[N+](=O)[O-] (stereo not drawn)	inconclusive [inhibitor, partial curve, poor fit]	
CO[C@@H]1CN(C)C(=O)c2cc(NC(=O)NC3CCCCC3)ccc2OC[C@@H](C)N(CCc2ccccc2)C[C@H]1C	inconclusive [inhibitor, single point]	
O=C(O)c1ccccc1-c1c2cc(I)c(=O)c(I)c-2oc2c(I)c(O)c(I)cc12	inactive	
CCN(CC)S(=O)(=O)c1cccc(C(=O)Nc2ccccc2C(=O)Nc2ccc(OC)cc2)c1	inconclusive [inhibitor, single point]	
Cc1cccc(C)c1OCC(=O)N(Cc1ccc(Cl)cc1)C1CCS(=O)(=O)C1 (stereo not drawn)	inconclusive [inhibitor, partial curve, poor fit]	
CC1SC(C)C(=O)N(CC(=O)Nc2ccc([N+](=O)[O-])cc2)C1=O (stereo not drawn)		inactive: -5.51% [at 7.66 µM]
O=C(/C=C/c1ccc2c(c1)OCO2)Nc1ccc(Cl)cn1	inconclusive [inhibitor, single point]	
COc1ccc(O)c(C(=O)c2cnc3c(c2)CN(C)C(=O)N3)c1	inconclusive [inhibitor, partial curve]	
Cc1cccc(CN2CCc3c([nH]c4ccccc34)C2CC(C)C)n1 (stereo not drawn)	active: 11.2 µM	
CC(C)Cn1c(N2CCN(C(=O)/C=C/c3ccccc3)CC2)nc2ccccc21	inconclusive [inhibitor, single point]	
CN1CCN(NC(=O)c2ccc(S(=O)(=O)N3CC4(C)CC3CC(C)(C)C4)cc2)CC1 (stereo not drawn)	inconclusive [inhibitor, single point]	
O=C(CSc1nc2ccccc2n1CCc1ccccc1)NC1CC1	inconclusive [inhibitor, partial curve]	
COc1ccc(CNC(=O)C2(c3cccs3)CCOCC2)cc1	inactive	
Cc1ccc(C)c(OCCC(=O)Nc2cccc(S(=O)(=O)NC3=NCCCCC3)c2)c1	inconclusive [inhibitor, partial curve, poor fit]	
CCOC(=O)C1CCN(C(=O)COc2ccc(Cl)cc2C)CC1	inconclusive [inhibitor, partial curve, poor fit]	

SMILES	Potency	activity change, negative = inhibition
COc1ccccc1-c1ccc(SCc2ccccc2F)nn1	inconclusive [inhibitor, single point]	
COCCN(Cc1ccccc1)C(=O)c1cccc(S(=O)(=O)N2CCCc3ccccc32)c1	inconclusive [inhibitor, single point]	
CC1Oc2cc3oc4c(O)c5c(cc4c(=O)c3c(O)c2C1(C)C)C=CC(C)(C)O5 (stereo not drawn)	inconclusive [inhibitor, partial curve]	
O=[N+]([O-])c1ccc(NC(=S)NCCc2ccccc2)cc1	inconclusive [inhibitor, single point]	
Cc1ccc(NC(=O)c2ccc(C)c(S(=O)(=O)N3CCCCCC3)c2)cc1	inconclusive [inhibitor, partial curve]	
CN1CCN(c2nc(-c3ccccc3)c3cc(Cl)ccc3n2)CC1	inactive	
CCOc1cc(/C=C2\N=C(SC(C)C(N)=O)N(c3ccc(OC(F)F)cc3)C2=O)ccc1O (stereo not drawn)	inconclusive [inhibitor, full curve]	
Nc1c(Cl)cc(-c2csc(N3CCCC3c3nc4cc(Cl)c(N5CCCCC5)cc4n3CCOCCO)n2)cc1Cl (stereo not drawn)	inconclusive [inhibitor, single point]	
Cc1ccc(-c2cc(C(=O)N3CCc4ccccc4C3)no2)cc1	inconclusive [inhibitor, single point]	
CN(C)CCCOc1cccc(Oc2ccccc2)c1	inconclusive [inhibitor, partial curve, poor fit]	
CC(C)N(c1ccccc1)c1ccc(NC(=S)NCCN(C)C)cc1	inconclusive [inhibitor, partial curve, poor fit]	
COc1cccc(-c2nc(CS(=O)(=O)CC(=O)Nc3ccc(F)cc3F)c(C)o2)c1	inconclusive [inhibitor, single point]	
CCOC(=O)[C@]12CCC=C1N(Cc1cccc3ccccc13)C(=O)[C@H](CC(=O)N1CCSCC1)C2	inconclusive [inhibitor, single point]	
Cc1cccc(C(C)(C)C)c1OCCCCN1CCCC1	inconclusive [inhibitor, partial curve, poor fit]	
O=C(/C=C/c1ccc(Cl)cc1)c1cccnc1	inactive	
Cn1cccc1/C=N/NC(=O)c1cc(-c2cccs2)nc2ccccc12	inconclusive [inhibitor, partial curve, poor fit]	
CC(NC(=O)C1CCCC1)c1ccc(Br)cc1 (stereo not drawn)	inconclusive [inhibitor, partial curve, poor fit]	
O=C(Nc1ccc2c(c1)N(S(=O)(=O)c1cccs1)CCC2)c1c(F)cccc1Cl	active: 7.94 µM	
CCOC(=O)C1=CCC(c2ccc(C)cc2)N(S(=O)(=O)c2ccc(C)cc2)C1 (stereo not drawn)	inconclusive [inhibitor, single point]	
